Screen size: about 52,000 compounds; about 1,700 (3.3%) were called active. No stated cut-off is given here; in the data, active means survival mostly below about 52% (no sharp cut-off); inactive means mostly above about 56%. The list shows a part of the results.
Tested on: Wild type
Experiment: S. aureus survival, RN4220 and DeltatarO strains – OD600, teichoic acid synthesis inhibitors, primary screen (AID 463173)
Settings: S. aureus RN4220 wild type/DeltatarO growth, OD600, 18 h, stronger effect = lower value, screened at 18.75 µg/mL (by protocol)

| SMILES | survival |
| --- | --- |
| Cc1ccc(CN2CCN(C3CCN(S(=O)(=O)N(C)C)CC3)C(=O)C2=O)cc1 | inactive: 85% |
| CC1(C)OC(=O)CC1C(=O)O (stereo not drawn) | inactive: 108% |
| CC1CCN(C(=O)Cn2c(SCC(=O)Nc3ccc(F)cc3)nc3ccccc32)CC1 | inactive: 70% |
| Cc1ccc(-c2csc(C(C#N)=C3CCCC3)n2)cc1 | inactive: 103% |
| CCOC(=O)C1=C(CN2CCN(C)CC2)NC(=O)NC1c1ccc(F)cc1 (stereo not drawn) | inactive: 71% |
| CC(C)c1ccc(OCC(=O)NCC(c2ccc(Cl)cc2)N2CCOCC2)cc1 (stereo not drawn) | inactive: 81% |
| CCN(Cc1ccccc1)C(=O)Cn1c(=O)n(-c2cccc(C)c2)c(=O)c2c1c1cc(OC)ccc1n2C | inactive: 77% |
| COc1cccc(C(=O)NC2CC3CCCC(C2)N3CC(=O)Nc2ccc(N(C)C)cc2)c1 (stereo not drawn) | inactive: 106% |
| Cc1nc2c(C(=O)NCCc3ccc(Cl)cc3)cnn2c(C)c1Cc1ccc(F)cc1 | inactive: 73% |
| CC(C)NC(=O)C1CCN(C(=O)c2cnn(-c3ccccc3)c2-n2cccc2)CC1 | inactive: 76% |
| CNc1nc2c(c(=O)n(C)c(=O)n2C)n1CC(O)COc1ccc(OC)cc1 (stereo not drawn) | inactive: 70% |
| CN(C(=O)c1cc2nc(-c3ccc4c(c3)OCO4)cc(C(F)(F)F)n2n1)c1ccc(OC(F)(F)F)cc1 | inactive: 75% |
| Cn1nc(C(=O)NCCc2ccc(Cl)cc2)c2c1-c1ccccc1SC2 | inactive: 82% |
| CCCSc1nc2sc3c(c2c(=O)n1-c1ccc(C)c(Cl)c1)CCN(C(C)=O)C3 | inactive: 87% |
| CCOC(=O)C1C(=O)C=C(c2ccc(NS(C)(=O)=O)cc2)CC1c1ccco1 (stereo not drawn) | inactive: 106% |
| CSc1nnc2n(-c3cccc(C)c3)c(=O)c3c4c(sc3n12)CCCC4 | inactive: 79% |
| Cc1cccc(-c2nnc(SCC(=O)N3CCCCC3)o2)c1 | inactive: 118% |
| O=C(Nc1ccccc1F)c1oc2ccccc2c1NC(=O)c1c(F)cccc1F | inactive: 53% |
| Cc1cccn2c(=O)cc(COc3cccc(NC(=O)c4cccc(Cl)c4)c3)nc12 | inactive: 136% |
| COc1ccc(S(=O)(=O)c2c(O)c(C)cc(NC(=O)c3ccccc3)c2C(C)C)cc1 | inactive: 85% |
| COc1ccccc1N1CCN(C(=O)c2ccc(Nc3nc4ccccc4n4nnnc34)cc2)CC1 | inactive: 91% |
| CCn1c(=O)n(CC)c2cc(N3CCCC3)c(NC(=O)Nc3cc(C)cc(C)c3)cc21 | inactive: 63% |

| SMILES | survival |
| --- | --- |
| Cc1ccc(CNC(=O)c2nn(C)c3c2CSc2ccc(C)cc2-3)cc1 | inactive: 59% |
| Cc1ccc(CCNC(=O)CSCc2nc(-c3ccc(C)cc3)oc2C)cc1 | inactive: 27% |
| COC(=O)c1ccccc1NC(=O)c1ccc(=O)n(Cc2cccc(C)c2)c1 | inactive: 71% |
| N#Cc1cccc(NC(=O)C2CCN(c3nc(-c4ccc(Cl)cc4)no3)CC2)c1 | inactive: 99% |
| Cc1c(C(=O)Nc2cccc(-c3nc4ccccc4s3)c2)oc2ccc(F)cc12 | inactive: 75% |
| Cc1cccc(NC(=O)CC2Nc3ccccc3NC2=O)c1 (stereo not drawn) | inactive: 128% |
| COc1cc(-c2nc(C(N)=O)c3c(n2)n(-c2cccc(C)c2)c(=O)n3C)cc(OC)c1OC | inactive: 69% |
| CCn1c(CN2CCCCC2)nc2cc(NC(=O)c3cccc([N+](=O)[O-])c3)ccc21 | inactive: 84% |
| CC(C)c1ccc(NC(=O)Cn2c3ncccc3c(=O)n2-c2ccccc2)cc1 | inactive: 74% |
| CCOc1ccc(-c2nnc(SCC(=O)Nc3cc(C)ccc3OC)o2)cc1 | inactive: 77% |
| CCC(=O)N1CCc2cc(CNC(=O)c3cccc(N(C)C)c3)ccc21 | inactive: 82% |
| COc1ccc(C(=O)NCc2ccc3c(c2)CCN3C(C)=O)c(OC)c1 | inactive: 115% |
| Cc1ccccc1NC(=O)C1CCN(S(=O)(=O)c2c(C)noc2/C=C/c2ccco2)CC1 | inactive: 81% |
| CCc1ccccc1NC(=O)Cn1nc(CC)n2c(cc3sccc32)c1=O | inactive: 86% |
| CCc1ccccc1N1C(=O)CN(S(=O)(=O)CC)CC1(C)C(=O)NC1CCCCC1 (stereo not drawn) | inactive: 124% |
| CCC(=O)OC1=C(C(C)=O)N(Cc2ccccc2)S(=O)(=O)c2ccccc21 | inactive: 71% |
| Cc1ccc(Cn2c(SCc3ccc(C(=O)N4CCCCC4)cc3)nc3ccncc32)cc1 | inactive: 35% |
| COc1cccc(C(c2nnnn2CCC(C)C)N2CCN(Cc3ccccc3)CC2)c1OC (stereo not drawn) | inactive: 113% |
| Cc1ccc(-c2c3c(=O)n(C)c(=O)n(C)c3c3n2-c2ccccc2NC3c2ccc(C)cc2O)cc1 (stereo not drawn) | active: -8% |
| COc1ccc(-c2cc(C(=O)N3CCCCC3C)no2)cc1OC (stereo not drawn) | inactive: 70% |
| CCOc1ccc(OCC)c(NC(=O)c2nnn(CC(=O)Nc3cc(Cl)ccc3OC)c2N)c1 | inactive: 71% |
| Cc1ccc(Cl)cc1N1CCN(S(=O)(=O)c2cn(C)c(C)n2)CC1 | inactive: 65% |

| SMILES | survival |
| --- | --- |
| O=C(COc1ccccc1)Nc1nnc(S(=O)(=O)Nc2ccccc2)s1 | inactive: 84% |
| CN(C(=O)CSc1nc(-c2ccccc2)no1)c1ccc(F)cc1 | inactive: 72% |
| COc1ccc(C(=O)c2sc3nc4c(c(C(F)(F)F)c3c2N)CN(C(C)=O)CC4)cc1OC | inactive: 82% |
| CC1CCCCN1CCCNC(=O)CN1C(=O)c2cccnc2Oc2ccc(Cl)cc21 (stereo not drawn) | inactive: 68% |
| CCOc1ccccc1C1C(C(=O)Nc2ccccc2)=C(C)Nc2nc(SCC(=O)c3ccc(C)cc3)nn21 (stereo not drawn) | inactive: 73% |
| O=C(c1ccc(Cl)cc1)N1CCN(CCc2ccncc2)CC1 | inactive: 113% |
| CCOc1ccccc1NC(=O)Nc1nnc(N2CCCC(C)C2)s1 (stereo not drawn) | inactive: 87% |
| Cc1ccc(-c2nnc(Nc3cccc(Cl)c3)c3ccccc23)cc1S(=O)(=O)N1CCN(C)CC1 | inactive: 68% |
| CCN(Cc1ccccc1)c1ncnc2c1cnn2-c1ccc(F)cc1 | inactive: 55% |
| CCOc1ccc(Nc2cc(C(=O)NCc3ccccc3Cl)c3ccccc3n2)cc1 | inactive: 92% |
| Cc1cccc(NC(=O)Cn2c(=O)n(CCCCCC(=O)NCc3ccccc3)c(=O)c3sccc32)c1 | inactive: 72% |
| CCOc1ccc(CNC(=O)C2CCN(C(=O)c3ccc(-n4ccc5ccccc54)s3)CC2)cc1 | inactive: 111% |
| CCOC(=O)N1CCN(C(=O)c2ccc3c(c2)N(Cc2ccccc2F)C(=O)c2ccccc2S3(=O)=O)CC1 | inactive: 82% |
| O=C(COc1ccccc1)NCC(c1ccc(Cl)cc1)N1CCCCC1 (stereo not drawn) | inactive: 85% |
| N#Cc1ccc(N2CCCCC2)cc1 | inactive: 119% |
| O=C(CCCc1ccccc1)NC1CC(=O)N(c2cccc(F)c2)C1 (stereo not drawn) | inactive: 128% |
| Cc1ccc(C)c(N2CCN(S(=O)(=O)c3c(C(=O)N4CCC(C)CC4)c(C)n(C)c3C)CC2)c1 | inactive: 83% |
| CN(C)N=Nc1ccc(-c2cn(Cc3ccccc3)cn2)cc1 | inactive: 100% |
| Fc1ccc(C(c2nnnn2C2CCCC2)N2CCc3ccccc32)cc1 (stereo not drawn) | inactive: 122% |
| CCc1ccc(NC(=O)CSc2nc3c(c(=O)[nH]2)CN(Cc2ccc4c(c2)OCO4)CC3)cc1 | inactive: 79% |
| O=C(Nc1ccc(Br)c(Cl)c1)c1ccc(C(=O)Nc2ccc(Br)c(Cl)c2)cc1 | inactive: 130% |
| CCOC(=O)c1cc2c(=O)n3ccccc3nc2n(C)c1=NC(=O)c1c(-c2c(F)cccc2Cl)noc1C | inactive: 142% |

| SMILES | survival |
| --- | --- |
| CCCCCn1c(CCCNC(=O)c2ccc(Cl)cc2)nc2ccccc21 | inactive: 90% |
| COC(=O)C1=C(C)N(C(C)C)C(=O)C1(NC(=O)c1ccccc1OC)C(F)(F)F (stereo not drawn) | inactive: 74% |
| COc1ccccc1CNC(=O)C(=O)NCC(c1ccco1)S(=O)(=O)c1ccc(C)cc1 (stereo not drawn) | inactive: 72% |
| COc1ccc(CNC(=O)CCc2nnc3n(C)c(=O)c4sccc4n23)cc1 | inactive: 147% |
| COc1ccc(-c2nc(C(=O)Nc3cccc(C(C)=O)c3)nn2-c2ccccc2Cl)cc1 | inactive: 80% |
| COc1ccc(N2CCN(C(=O)c3cc4c(=O)n(Cc5ccco5)ccc4nc3C)CC2)cc1 | inactive: 89% |
| COCCCNC(=O)c1cc2c(-c3cccc(OC)c3)nn(C)c2s1 | inactive: 84% |
| O=C(CSc1nccn1Cc1ccc(Cl)cc1)Nc1nc2ccccc2s1 | active: 0% |
| CCC(=O)N1CCc2cc(Br)cc(S(=O)(=O)Nc3ccccc3C(=O)OC)c21 | inactive: 136% |
| CCOc1cc(-c2nc(-c3ccc(-c4ccccc4)nc3OCC)no2)cc(OCC)c1OCC | inactive: 60% |
| O=C(NCc1ccccc1Cl)c1ccccc1NC(=O)c1nsc2ccccc12 | inactive: 67% |
| COc1cc(OC)c(NC(=O)c2cnn(-c3ccccc3)c2-n2cccc2)cc1Cl | inactive: 80% |
| CCc1ccc(NC(=O)c2cc(S(=O)(=O)N3CCCC(C)C3)cn2C)cc1 (stereo not drawn) | inactive: 88% |
| Cc1ccccc1CCNC(=O)c1ccc(Cn2c(=O)c3cccn3c3cccnc32)cc1 | inactive: 95% |
| COc1cc(CN(C(=O)COc2ccc(F)cc2)c2ccccn2)cc(OC)c1OC | inactive: 85% |
| CCOc1ccc(OCC(=O)Nc2ccc(S(=O)(=O)Nc3cc(C)on3)cc2)cc1 | inactive: 62% |
| COc1cc(NC(=O)CCN2CCN(CCO)CC2)cc(OC)c1 | inactive: 139% |
| COc1ccc(CCNC(=O)C2COc3ccccc3O2)cc1 (stereo not drawn) | inactive: 113% |
| Cc1cc(OCC(=O)N(C)c2ccccc2)cc(C)c1Cl | inactive: 116% |
| Cc1ccc(C)c(N2CCN(C(=O)c3cc(C)nc4c3c(C)nn4-c3ccccc3)CC2)c1 | inactive: 134% |
| Cc1ccc(N2CC(C(=O)NC3CC3)CC2=O)cc1Cl (stereo not drawn) | inactive: 101% |
| O=C(NC1CCCC1)C(c1ccncc1)N(Cc1ccco1)C(=O)Cn1nnc(-c2ccc(Cl)cc2)n1 (stereo not drawn) | inactive: 96% |

— PubChem BioAssay AID463173 (ICCB-Longwood Screening Facility, Harvard Medical School, 2010)
